Laboratory results as given in PubChem BioAssay AID1347417 (National Center for Advancing Translational Sciences (NCATS), 2020).
Among all 120,000 compounds or so, about 5,300 (4.4%) were called active. Inconclusive results, whose numbers are uncertain, are shown with a selection of clear calls. Calls come from the whole dose curve; as a rule, active = well fitted inhibition curve with a large enough effect; inconclusive = small, poorly fitted or top-dose-only effect; inactive = no such curve, though single readings can be large or run the other way. Potencies of inconclusive entries are doubtful fits and often do not repeat.
Potency is the fitted concentration of half-maximal effect; tags give direction and shape of the fitted curve.

Assay: qHTS Primary assay for Inhibitors of Plasmodium falciparum Dd2 growth in vitro; note: nearly all actives have a fitted effect of over 65% in size;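 for activity, negative = inhibition: plate controls were DMSO vehicle for no effect and reference drug for full effect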
Details: P. falciparum Dd2 growth, SYBR Green, 72 h; activity, negative = inhibition: at 28.9 µM (top of the series) unless noted; series mostly up to 28.9 µM
Method in brief: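 Infected erythrocytes (Dd2, 0.3% parasitemia, 2.5% hematocrit final) are added to compound in RPMI-1640/Albumax II medium, grown 72 h at 37C in low oxygen, then lysed with saponin/Triton-X containing SYBR Green and read by fluorescence.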
In the case of `COc1ccc(N2CCN(C(=O)CSc3n[nH]c(-c4ccccc4Cl)n3)CC2)cc1`, the “activity, negative = inhibition” value is reported as inactive: -5.39%.
For `CCn1nc(C)c(-c2cc(C(=O)NCC3Cn4cccc4CN3C)no2)c1C` (stereo not given), the Potency was inconclusive: 4.47 µM [inhibitor, partial curve, poor fit].
For `Cc1ccc(C)c(CN2C(=O)c3ccccc3S(=O)(=O)c3ccc(C(=O)NCCC4=CCCCC4)cc32)c1`, the Potency was inconclusive: 11.2 µM [inhibitor, single point].
In the case of `CCCCN1C(=O)[C@@H]2C[C@@H](O)CN2C2(CN(C3CCCC3)C2)C1=O`, the “activity, negative = inhibition” value is reported as inactive: -26.3% [at 44.1 µM].
For `COc1cccc(CN2CCc3c(cc(C(=O)Nc4cc(C)ccc4C)n3C)C2)c1`, the Potency was inconclusive: 2 µM [inhibitor, single point].
With `CC1CCN(CCNC(=O)c2cc3cn(C(C)C)cc3s2)CC1` the Potency was inconclusive: 12.6 µM [inhibitor, partial curve].
In the case of `Cc1ccc(-c2cc(C(=O)N3CCC(c4nc(C5CCOCC5)no4)C3)c3ccccc3n2)cc1C` (stereo not given), the Potency is reported as inconclusive: 10 µM [inhibitor, partial curve, poor fit].
For `O=C1CC(c2ccccc2)N(C(=O)CNC(=O)c2ccc3cc[nH]c3c2)CCCCCN1` (stereo not given), the Potency was active: 10 µM.
With `COc1ccc(C)cc1NC(=O)Cn1c(-c2ccc(F)cc2)nc(C)cc1=O` the Potency was inconclusive: 14.1 µM [inhibitor, single point].
In the case of `Cc1ccc(-c2[nH]ncc2CN2C[C@@H](CO)[C@H](NC(=O)C3CC3)C2)cc1`, the Potency is reported as inconclusive: 20 µM [inhibitor, single point].
For `COCCN(C)C[C@@H]1CN(C(=O)c2ccc(-c3ccccc3)n2C)C[C@@H]1CO`, the Potency was inconclusive: 11.2 µM [inhibitor, partial curve, poor fit].
In the case of `COc1ccccc1C(=O)N1CCCC2(C1)C(=NC1CCCCC1)NC(=O)N2c1cc(F)cc(F)c1` (stereo not given), the Potency is reported as inconclusive: 11.2 µM [inhibitor, single point].
With `COc1ccc(CN2CCN(c3nc4ccccc4o3)CC2CCO)c(F)c1` (stereo not given) the “activity, negative = inhibition” value was inactive: -7.9%.
For `c1ccc(-c2cc(NCCCOc3cccnc3)n3nccc3n2)cc1`, the Potency was inconclusive: 17.8 µM [inhibitor, single point].
In the case of `CCc1ncc(-c2ccccc2)[nH]1`, the “activity, negative = inhibition” value is reported as inactive: -21.6% [at 44.1 µM].
With `COCC(=O)NC1CCC12CCN(C(=O)c1ccoc1)CC2` (stereo not given) the “activity, negative = inhibition” value was inactive: 8.36%.
In the case of `COc1ccc(N2Cc3c(NCCc4ccc(F)cc4)ncnc3N(C)CC2=O)cc1`, the “activity, negative = inhibition” value is reported as inactive: -28.1%.
For `CCCCCn1c(=O)[nH]c2cc(C(=O)N3CCN(c4cccc(C(F)(F)F)c4)CC3)ccc2c1=O`, the Potency was inconclusive: 10 µM [inhibitor, partial curve].
In the case of `Cc1ccc(O[C@H]2CCOC[C@H]2NC(=O)CCN2CCCCO2)cn1`, the “activity, negative = inhibition” value is reported as inactive: -9.11%.
In the case of `COc1ccccc1C(=O)N1CCC(N2CCNC2=O)CC1`, the “outcome” value is reported as “inactive”.
For `C#CCNC(=O)[C@@H]1CCCN1[C@@H](C(=O)NC)c1ccccc1F`, the “activity, negative = inhibition” value was inactive: 3.09% [at 44.1 µM].
With `CCc1ccccc1NC(=O)Nc1nnc(N(CC)c2ccccc2)s1` the Potency was inconclusive: 11.2 µM [inhibitor, single point].
In the case of `CC(C)(C)C1CCC2(CC1)NC(=O)N(CC(=O)NCc1ccco1)C2=O` (stereo not given), the Potency is reported as inconclusive: 2.51 µM [inhibitor, partial curve, poor fit].
For `CCN1CCN(c2ncc3c(n2)CC(c2ccccc2O)CC3=O)CC1` (stereo not given), the Potency was active: 8.91 µM.
With `O=C(CCC[C@H]1NC[C@@H]2C[C@H]1CN(Cc1ccccc1)C2)NCC1CCCCC1` the Potency was inconclusive: 11.2 µM [inhibitor, single point].
In the case of `Cc1ccc(CN2CC(Oc3cccc(C(=O)N4CCOCC4)c3)C2)s1`, the Potency is reported as inconclusive: 1 µM [inhibitor, partial curve, poor fit].
With `N#Cc1ccc(C(=O)NCc2nnc3ccc(-c4ccc(F)cc4)nn23)cc1` the “activity, negative = inhibition” value was inactive: -10.4%.
For `COc1ccccc1CNC(=O)c1cn(C)c2ccc(S(=O)(=O)N(C)C3CCCCC3)cc2c1=O`, the Potency was inconclusive: 20 µM [inhibitor, single point].
With `O=C(NC1CC1)c1ccc2c(c1)CC(=O)N2Cc1ccc(F)cc1` the Potency was inconclusive: 2.51 µM [inhibitor, single point].
In the case of `O=C(CSc1nc2c([nH]c3ccccc32)c(=O)n1-c1ccc(Cl)cc1)c1ccccc1`, the “activity, negative = inhibition” value is reported as inactive: 55.7%.
For `COc1ccc(NCc2cccn2-c2nnc(N3CCCCC3)s2)cc1OC`, the Potency was inconclusive: 17.8 µM [inhibitor, single point].
For `Fc1ccc(OC2CN(Cc3cccnc3)C2)c(F)c1`, the activity, negative = inhibition was inconclusive: -82% [inhibitor] [at 44.1 µM].
For `CCOc1ccc(NC(=O)c2c(NC(=O)Cc3ccccc3)sc3c2CCCCC3)cc1`, the Potency was inconclusive: 10 µM [inhibitor, single point].
With `Clc1cccc(-c2cnc([C@@H]3COCCN3Cc3cnc4ccccc4c3)[nH]2)c1` the Potency was inconclusive: 22.4 µM [inhibitor, single point].
For `Cc1csc2nc(COc3cccc(NC(=O)c4ccccc4F)c3)cc(=O)n12`, the “activity, negative = inhibition” value was inactive: 0.536%.
In the case of `Cn1nc2n(c1=O)CCC(NC(=O)CCc1nc3ccccc3[nH]1)CC2` (stereo not given), the “activity, negative = inhibition” value is reported as inactive: 0.449%.
For `CC(C)CC(=O)N1CCC2(CC1)OCC(C(=O)NCc1ccccc1)N2C(=O)c1ccccc1` (stereo not given), the Potency was inconclusive: 11.2 µM [inhibitor, single point].
With `O=c1ccc(-c2ccc(Cl)cc2)c2n1C[C@H]1C[C@@H]2CN(S(=O)(=O)c2ccccc2)C1` the Potency was inconclusive: 3.98 µM [inhibitor, partial curve, poor fit].
With `Fc1cccc(Nc2cnc3ccc(-c4ccccc4)nn23)c1` the Potency was inconclusive: 3.98 µM [inhibitor, full curve, poor fit].
In the case of `CCOc1cccc(-c2noc(-c3nnn4c3COC(c3ccc(Cl)cc3)C4)n2)c1` (stereo not given), the “activity, negative = inhibition” value is reported as inactive: -16.3%.
For `CCOC(=O)C1CCN(c2nc3c(S(=O)(=O)c4ccc(C)c(C)c4)nnn3c3ccc(Cl)cc23)CC1`, the Potency was inconclusive: 12.6 µM [inhibitor, single point].
For `Cc1nc(N2CCN(C(=O)Cc3ccc(Cl)cc3)CC2)cc(C(F)(F)F)n1`, the Potency was active: 3.98 µM.
For `CN1CCc2c(sc3c2C(=O)NC(c2ccc(C(C)(C)C)cc2)N3)C1` (stereo not given), the Potency was inconclusive: 0.126 µM [inhibitor, full curve, poor fit].
With `Cc1ccc(-c2noc([C@@H]3C[C@H](NS(=O)(=O)c4ccc(C)cc4)CN3C)n2)cc1` the Potency was inconclusive: 8.91 µM [inhibitor, partial curve, poor fit].
For `O=C(c1ccc(Oc2ccc(CN3CCCC3)cc2F)nc1)N1CCCCC1`, the Potency was active: 7.08 µM.
In the case of `Cc1nnc(-c2cc(-c3cccc(F)c3)ccn2)n1CCN1CCOCC1`, the “outcome” value is reported as “inactive [at 44.1 µM]”.
In the case of `COc1ccc(Cn2c(SCC(=O)N(C)Cc3ccccc3)nc3ccccc32)cc1`, the Potency is reported as inconclusive: 0.398 µM [inhibitor, single point].
With `COc1ccc(CCNc2ncnc3c2cnn3-c2cc(Cl)ccc2C)cc1` the Potency was inconclusive: 10 µM [inhibitor, single point].
With `CC(C)Oc1cccc2c1c(NC(=O)c1ccn(C)n1)nn2Cc1ccccc1` the Potency was active: 8.91 µM.
In the case of `COCC(=O)N[C@H]1CC[C@]2(C)CCC([C@H](C)C(=O)NCc3ccc4c(c3)OCO4)[C@H](O)[C@H]2[C@@H]1C` (stereo not given in full), the “activity, negative = inhibition” value is reported as inactive: -15.8%.
With `COc1ccc(CN2Cc3[nH]cnc3C[C@H]2c2nc(-c3ccncc3)no2)cc1` the Potency was inconclusive: 1.26 µM [inhibitor, partial curve, poor fit].
With `COCCN1CC(CO)C2(CCN(Cc3ccc(Cl)c(F)c3)CC2)C1` (stereo not given) the Potency was inconclusive: 11.2 µM [inhibitor, partial curve, poor fit].
For `COc1ccc2nc(N(Cc3cccnc3)C(=O)Cc3ccccc3)sc2c1`, the Potency was inconclusive: 12.6 µM [inhibitor, single point].
In the case of `CCOc1ccc2c(n1)CCN(C(=O)Cc1cccc(OC)c1)C2`, the Potency is reported as inconclusive: 17.8 µM [inhibitor, single point].
With `CN(C)S(=O)(=O)c1ccc(C(=O)NCCSc2c(-c3ccccc3)[nH]c3ccccc23)cc1` the Potency was inconclusive: 10 µM [inhibitor, single point].
With `COc1ccc(C2Cn3cnc(-c4nc(-c5ccc(OC)c(OC)c5)no4)c3CO2)cc1` (stereo not given) the Potency was inconclusive: 5.01 µM [inhibitor, partial curve, poor fit].
In the case of `CCn1ncc(N2CCCC(CC(=O)NCc3ccc(C)cc3)C2)cc1=O` (stereo not given), the “outcome” value is reported as “inactive”.
For `CC(C)CN1CCOC[C@H](Oc2ccccc2)C1`, the Potency was inconclusive: 12.6 µM [inhibitor, single point].
For `CCc1noc(-c2cn(C3CCN(C(=O)c4ccc(OC)c(OC)c4)C3)nn2)n1` (stereo not given), the “outcome” value was “inactive”.
In the case of `COc1ccc(N(Cc2cc3cccc(C)c3[nH]c2=O)C(=O)c2cccc(Cl)c2)cc1`, the Potency is reported as inconclusive: 20 µM [inhibitor, single point].
In the case of `COc1ccc(-c2nc(S(=O)(=O)c3ccc(Cl)cc3)c(NCc3ccccc3)o2)cc1`, the Potency is reported as inconclusive: 11.2 µM [inhibitor, single point].
In the case of `CN(C)c1cccc(-c2nccc3c(=O)cc(N(C)C4CCOCC4)oc23)c1`, the Potency is reported as inconclusive: 12.6 µM [inhibitor, single point].
With `COc1cc(-c2nc(Cn3nnc(C(=O)Nc4cccc(Cl)c4)c3C)c(C)o2)cc(OC)c1OC` the Potency was inconclusive: 17.8 µM [inhibitor, single point].
With `Nc1nc(N2CC3CCC(C2)N3CC(F)(F)F)c2[nH]cnc2n1` the Potency was inconclusive: 5.01 µM [inhibitor, partial curve, poor fit].
For `O=C(Nc1ccc(Cl)cc1)N1CCC(c2nn(-c3ccccc3)c(=O)[nH]2)CC1`, the Potency was inconclusive: 17.8 µM [inhibitor, single point].
